Experimental data reported in the supplement of paper PMC11417369.
Some of the results follow.

test system: PfSIP2 AP2 domain 1 (GST-tagged); assay: gcPBM binding intensity (ln(normalized median fluorescence intensity)); higher = stronger DNA binding
Outline: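 GST-fused DNA-binding domains of P. falciparum, expressed in E. coli, were applied at about 25 μg on average for 1 h to an Agilent 4 × 180k array of primer-extended double-stranded 36-bp intergenic genomic probes and negative controls. Binding intensity is the highest Masliner-normalised natural-log median intensity across replicate spots of either probe orientation, measured with Alexa488 anti-GST antibody and a 488 nm scan.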

Sequence | gcPBM binding intensity (ln)
ATTTATATTACCCTTGCATGTAGGTGCAATTTTTTT [TGCATGCA_site757] | 11
CATTTTGTTTTAAAGTGTACATTATGTAATATAAAA [XGTACX_site647] | 7.15
TTTTTATAGGTAAAAACACACGCTAAAAATAATTAA [CACACA_site3731] | 6.95
AATAAATATATATTCACACACAAACATATATATATA [CACACA_site4023] | 9.1
TTTATAATTTATATCACACACATATATATATAGTAA [CACACA_site8] | 7.05
AAATAAATAAATAAATAAACAAATATGTATAAATGG [XGTACX_negctrl_site153] | 7.13
AGGTACTTTTTTAAAACACACATATAATAAATACAC [CACACA_site4730] | 7.62
ATAAGATTAAACATTGCACACAGAAATATATTTTCT [CACACA_site8743] | 7
TATATATATATATATTGTACATATGTAACCTTTTAA [XGTACX_site3914] | 9.26
CCTATATAATATATTTGTACTTAATAATTAAAGTGT [XGTACX_site5151] | 7.16
TTTTTTAGATTACATAAATATAAATATAAATATATA [GTGCAC_negctrl_site459] | 6.68
TCAACTATCAATATAGTGCATTTTTTTTGGAAAACC [GTGCAC_site9927] | 8.5
TATCAAAATTAGTATACACACAAAATTAATCAAATA [CACACA_site7117] | 6.94
TTTAAATATATATATTGTACAAAAAAAAATAATAAA [XGTACX_site4759] | 6.93
ATAAAATTTATGACTTGTACATGTAAATAAAATATA [XGTACX_site762] | 7.15
TGTAGAACTCAATATTGTACATTATATAAAATGGGA [XGTACX_site3857] | 7.13
ATATATATATATTGTACACACATTTATGCATATATA [CACACA_site5738] | 9.2
TTTTTTTGCATTTCATGTACATATATTGAGCTTAAA [XGTACX_site8485] | 7.3
CTTCTTGTAAAATTTGCATGTAATTAAAAGAGAATG [TGCATGCA_site484] | 7.04
GCCTTTTAGTATTTCACACACGTAAATGAGTATATC [CACACA_site4748] | 7.27
TTCCCTATCTTTTCAGTGCATTTTGTTTCCTACCTT [GTGCAC_site9813] | 8.98
ATAAAGAATATAAATACACACTTAAATATAGATTAT [CACACA_site7804] | 6.76

Sequence | gcPBM binding intensity (ln)
ATTGGTTCCCCTCTCTTTTCAATATATTTTTTTTTT [XGTACX_negctrl_site259] | 6.81
GATATAGGGCGTATGTTAATCGTGAAAGAGTGTCTT [GTGCAC_negctrl_site102] | 6.98
TTCAAATGATTTATGTGTACATAAAATTATTTTTTA [XGTACX_site107] | 6.83
AAAAAATTAAAAATCACACATAAATATATATAAAAA [CACACA_site4192] | 7.02
TAATGAAGCTTATGCACACGTTCATTATTTATATTA [CACACA_site3219] | 9.08
ATATTACAGTACAATACATGCATATGGAAAAAAAAA [TGCATGCA_site72] | 7.23
TACTTATATTGAAATGGTACAGATAAAAAAAAAAAA [XGTACX_site1407] | 6.94
TTTTGTAATGTGAATATTTGTATATTATTTGTATAT [CACACA_negctrl_site1677] | 7.03
ACATTCTATCTAAGTACACACATTAATTTTTTTTTT [CACACA_site4106] | 7.34
AATTTACATATATATTGTACATTTATGTATATATAT [XGTACX_site4186] | 7.77
TAATATTTTTTGTGTACACATATATATATATATATA [CACACA_site5504] | 8.94
AATTAGATGGATAAATGTACATATGTGAATATATTT [XGTACX_site85] | 7.16
GTGCCCTTTTTAATAACATGCAAATAACATATTTAT [TGCATGCA_site709] | 8.06
AAAAAAAAAAAAAACACACAAACATCAAATTATTAT [CACACA_site1838] | 7.28
TTTATATTATACGCACTAATATATATATATATATAT [TGCATGCA_negctrl_site47] | 9.7
ATATAACACAAGGGCACACATATACCTTTCCTTTTT [CACACA_site412] | 7.19
ATCTTATATCGTAGAGATTTTTTTTTTTTTTCATTT [XGTACX_negctrl_site140] | 6.7
AATTTCTTCTTAGGGTGTACAATTTGACATAAGGAA [XGTACX_site1773] | 7.43
GTAATATATATTAAGTAATAGTTTATCTTAGGAAAA [TGCATGCA_negctrl_site302] | 6.88
GATCCATTATTGATCCGTACTTATTCATGTTATATA [XGTACX_site5946] | 6.92
TGTTATAAGATTTATGTACACACATATACACCCCTC [CACACA_site8141] | 7.54
TATATATGTATATATACACACAACGGTTATAAATAT [CACACA_site1128] | 7.21
